# Assay results: PubChem BioAssay (NCATS)
# The shares of active, inactive and inconclusive entries below differ from those in the screen. For some of these results: Potencies of inconclusive entries are left out as doubtful fits. Activity calls are given as the source filed them. The call rests on the fitted dose curve; in most records, active means well fitted curve in the direction sought with a large enough effect; inconclusive means small, poorly fitted or top-dose-only effect, or another doubt; inactive means no such curve, though single readings can be large; an effect the other way counts as inactive or inconclusive.
# Experiments:
# [1] = target: ATPase family AAA domain-containing protein 5 (Homo sapiens) (UniProt Q96QE3); assay: HTS assay for small molecules that inhibit ELG1-dependent DNA repair in human embryonic kidney (HEK293T) cells expressing luciferase-tagged ELG1: Hit Confirmation (AID 624248); further: potency means the concentration at half of the fitted maximal effect; nearly all actives have a fitted effect of over 55% in size
# Sequence of UniProt Q96QE3 (Q96QE3 whole entry, looked up, the tested form may be a part): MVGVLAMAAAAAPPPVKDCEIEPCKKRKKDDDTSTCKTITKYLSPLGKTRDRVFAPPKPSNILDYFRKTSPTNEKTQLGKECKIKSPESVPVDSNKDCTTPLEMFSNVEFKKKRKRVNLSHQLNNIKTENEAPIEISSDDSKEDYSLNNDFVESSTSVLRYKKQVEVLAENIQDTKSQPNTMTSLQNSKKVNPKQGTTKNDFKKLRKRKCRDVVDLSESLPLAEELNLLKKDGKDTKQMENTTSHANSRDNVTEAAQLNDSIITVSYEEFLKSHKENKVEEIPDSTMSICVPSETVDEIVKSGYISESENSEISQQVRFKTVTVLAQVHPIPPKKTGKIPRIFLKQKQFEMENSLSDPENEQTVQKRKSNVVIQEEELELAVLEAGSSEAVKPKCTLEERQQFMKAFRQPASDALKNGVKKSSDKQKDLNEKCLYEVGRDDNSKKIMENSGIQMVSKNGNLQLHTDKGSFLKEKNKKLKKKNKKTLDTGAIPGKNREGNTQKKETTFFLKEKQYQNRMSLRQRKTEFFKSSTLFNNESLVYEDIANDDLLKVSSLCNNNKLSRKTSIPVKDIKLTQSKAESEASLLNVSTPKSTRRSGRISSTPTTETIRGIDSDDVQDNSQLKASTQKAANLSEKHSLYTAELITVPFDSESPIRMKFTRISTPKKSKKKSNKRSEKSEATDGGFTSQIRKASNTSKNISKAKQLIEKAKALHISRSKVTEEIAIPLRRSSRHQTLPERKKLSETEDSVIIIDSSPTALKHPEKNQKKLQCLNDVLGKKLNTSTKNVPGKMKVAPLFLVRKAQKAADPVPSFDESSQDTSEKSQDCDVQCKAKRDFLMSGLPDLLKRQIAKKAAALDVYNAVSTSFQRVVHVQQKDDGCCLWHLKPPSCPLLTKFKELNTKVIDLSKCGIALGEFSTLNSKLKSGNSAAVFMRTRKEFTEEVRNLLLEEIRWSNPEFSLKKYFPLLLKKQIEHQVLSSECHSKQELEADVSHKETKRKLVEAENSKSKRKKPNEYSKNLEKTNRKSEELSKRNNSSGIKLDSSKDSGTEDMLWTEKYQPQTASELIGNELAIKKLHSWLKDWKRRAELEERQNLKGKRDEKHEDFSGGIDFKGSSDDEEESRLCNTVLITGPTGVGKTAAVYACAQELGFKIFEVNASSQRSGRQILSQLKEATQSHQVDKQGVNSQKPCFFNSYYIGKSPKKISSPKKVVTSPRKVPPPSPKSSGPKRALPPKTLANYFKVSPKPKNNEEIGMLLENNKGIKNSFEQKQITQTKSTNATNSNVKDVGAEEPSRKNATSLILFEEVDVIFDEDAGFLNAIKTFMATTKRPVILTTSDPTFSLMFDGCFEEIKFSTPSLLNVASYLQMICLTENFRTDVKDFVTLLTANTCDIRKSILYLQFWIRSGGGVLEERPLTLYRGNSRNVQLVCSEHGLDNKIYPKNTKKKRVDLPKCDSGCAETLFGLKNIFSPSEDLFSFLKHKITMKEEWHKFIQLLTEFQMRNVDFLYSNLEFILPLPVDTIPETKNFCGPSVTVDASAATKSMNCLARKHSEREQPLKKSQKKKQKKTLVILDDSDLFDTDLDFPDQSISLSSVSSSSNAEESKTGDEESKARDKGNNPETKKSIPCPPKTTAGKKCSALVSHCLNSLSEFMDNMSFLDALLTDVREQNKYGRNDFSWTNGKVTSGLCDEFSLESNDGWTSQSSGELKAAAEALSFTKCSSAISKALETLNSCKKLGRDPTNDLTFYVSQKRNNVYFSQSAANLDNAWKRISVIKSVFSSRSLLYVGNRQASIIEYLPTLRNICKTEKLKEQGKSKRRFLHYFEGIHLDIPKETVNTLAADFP
# Procedure, shortened: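 Cells (2,000/well) received 5-Fluorouridine plus pin-transferred compound or DMSO and were incubated 16 hr at 37 °C, 5% CO2. Luciferase activity was read by ONE-Glo luminescence after 30 min at room temperature; inhibitors suppress the signal.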
# [2] = target: ATPase family AAA domain-containing protein 5 (Homo sapiens) (UniProt Q96QE3); assay: qHTS screen for small molecules that inhibit ELG1-dependent DNA repair in human embryonic kidney (HEK293T) cells expressing luciferase-tagged ELG1: Hit Confirmation using MMS Stimulated ELG1 (AID 624249); further: potency means the concentration at half of the fitted maximal effect; nearly all actives have a fitted effect of over 60% in size
# Procedure, shortened: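 Hit confirmation in an ELG1-luc HEK293T line: about five hours after plating, wells got compound plus MMS at a final 10 µM. A 16 h incubation preceded Amplight-based luciferase measurement.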
# [3] = qHTS screen for small molecules that inhibit ELG1-dependent DNA repair: Hit Confirmation with MMS Viability (AID 624251);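 further: viability read 16 h after compound addition; nearly all actives have a fitted effect of over 60% in size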
# Procedure, shortened: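 This confirmation step measures survival of ELG1-luciferase reporter HEK293T cells co-treated with test compounds and MMS at a final 10 µM, using CellTiter-Glo after a 16-hour incubation.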
# [4] = target: Bifunctional 3'-5' exonuclease/ATP-dependent helicase WRN (Homo sapiens) (UniProt Q14191); assay: qHTS for Inhibitors of WRN Helicase: Confirmatory Assay for Cherry-picked Compounds. (AID 720497); further: potency means the concentration at half of the fitted maximal effect; nearly all actives have a fitted effect of over 65% in size
# Sequence of UniProt Q14191 (Q14191 whole entry, looked up): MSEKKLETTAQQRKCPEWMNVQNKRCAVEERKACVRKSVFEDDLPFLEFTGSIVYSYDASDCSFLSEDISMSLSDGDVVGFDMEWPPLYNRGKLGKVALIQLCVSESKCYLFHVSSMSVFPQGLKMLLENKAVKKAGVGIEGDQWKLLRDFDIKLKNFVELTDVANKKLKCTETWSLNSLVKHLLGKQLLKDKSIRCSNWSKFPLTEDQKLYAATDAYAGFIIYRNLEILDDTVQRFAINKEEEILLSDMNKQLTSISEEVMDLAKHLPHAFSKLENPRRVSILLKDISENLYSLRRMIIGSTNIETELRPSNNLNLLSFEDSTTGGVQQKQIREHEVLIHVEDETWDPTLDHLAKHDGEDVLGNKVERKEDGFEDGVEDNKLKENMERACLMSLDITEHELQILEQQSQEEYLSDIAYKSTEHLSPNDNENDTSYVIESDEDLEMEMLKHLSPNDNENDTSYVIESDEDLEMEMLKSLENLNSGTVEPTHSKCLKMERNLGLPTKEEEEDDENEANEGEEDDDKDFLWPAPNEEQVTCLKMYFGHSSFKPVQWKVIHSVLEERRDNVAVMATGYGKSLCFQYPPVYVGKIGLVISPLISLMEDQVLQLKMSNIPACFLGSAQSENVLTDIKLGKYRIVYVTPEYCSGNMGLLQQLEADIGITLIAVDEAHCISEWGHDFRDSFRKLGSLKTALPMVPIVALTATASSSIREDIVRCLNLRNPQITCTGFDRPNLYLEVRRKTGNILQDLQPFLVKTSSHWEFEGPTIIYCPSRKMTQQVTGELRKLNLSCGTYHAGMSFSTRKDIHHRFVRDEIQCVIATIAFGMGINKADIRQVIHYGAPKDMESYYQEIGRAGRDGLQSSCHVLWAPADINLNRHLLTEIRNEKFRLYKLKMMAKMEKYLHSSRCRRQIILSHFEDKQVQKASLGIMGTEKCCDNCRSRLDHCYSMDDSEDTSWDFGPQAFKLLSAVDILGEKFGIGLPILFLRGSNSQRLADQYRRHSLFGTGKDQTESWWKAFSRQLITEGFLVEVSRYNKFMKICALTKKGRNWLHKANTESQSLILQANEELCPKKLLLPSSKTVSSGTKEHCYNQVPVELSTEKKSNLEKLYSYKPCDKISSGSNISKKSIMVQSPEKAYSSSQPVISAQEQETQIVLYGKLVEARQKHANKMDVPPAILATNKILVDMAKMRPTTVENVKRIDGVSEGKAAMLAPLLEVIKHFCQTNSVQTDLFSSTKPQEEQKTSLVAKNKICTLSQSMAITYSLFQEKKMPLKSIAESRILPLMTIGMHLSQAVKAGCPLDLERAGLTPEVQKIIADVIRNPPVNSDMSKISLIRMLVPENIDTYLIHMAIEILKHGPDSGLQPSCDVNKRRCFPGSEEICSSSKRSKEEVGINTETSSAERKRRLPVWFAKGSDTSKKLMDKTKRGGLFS
# Procedure, shortened: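 Confirmatory retest of cherry-picked hits in 1536-well format. Enzyme (20 nM final) sat with compound for 15 min at room temperature before forked duplex substrate (100 nM) and ATP (2 mM) were added, and unwinding was followed kinetically by red fluorescence.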
# [5] = target: Fructose-bisphosphate aldolase (Giardia intestinalis (strain ATCC 50803 / WB clone C6)) (UniProt A8B2U2); assay: qHTS Assay for Inhibitors of Fructose-1,6-bisphosphate Aldolase from Giardia Lamblia: Primary screen confirmation (AID 2787); further: nearly all actives have a fitted effect of over 45% in size; further: potency means the concentration at half of the fitted maximal effect
# Sequence of UniProt A8B2U2 (A8B2U2 whole entry, looked up): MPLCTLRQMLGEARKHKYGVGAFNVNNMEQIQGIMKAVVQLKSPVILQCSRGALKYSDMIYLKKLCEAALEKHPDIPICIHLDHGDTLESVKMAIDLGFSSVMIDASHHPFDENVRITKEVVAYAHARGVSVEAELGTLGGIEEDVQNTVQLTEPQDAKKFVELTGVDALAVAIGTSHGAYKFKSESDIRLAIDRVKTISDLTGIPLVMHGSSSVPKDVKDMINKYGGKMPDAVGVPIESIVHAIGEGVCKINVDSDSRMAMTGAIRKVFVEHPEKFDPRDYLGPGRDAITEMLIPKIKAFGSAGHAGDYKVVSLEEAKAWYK
# Procedure, shortened: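 FBPA (40 nM in enzyme reagent, with 30 uM ZnCl2) was preincubated 10 min at RT with compound up to 57.5 uM final. Substrate plus coupled detection system was then added, and fluorescence (525/598 nm) was read after 20 min at RT.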
# [6] = qHTS Assay for Inhibitors of Fructose-1,6-bisphosphate Aldolase from Giardia Lamblia: Mammalian cellular toxicity (AID 2786);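 further: compound exposure lasted 48 h before reading; nearly all actives have a fitted effect of over 60% in size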; further: potency means the concentration at half of the fitted maximal effect
# Procedure, shortened: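 Chinese hamster ovary cells (250/well, DMEM with 10% FBS and penicillin/streptomycin) were exposed to compounds for 48 h at 37 °C, 5% CO2. Viability was taken as cellular ATP content, read with ATPlite reagent after 20 min.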
# [7] = qHTS Assay for Inhibitors of Fructose-1,6-bisphosphate Aldolase from Giardia Lamblia: Coupling assay counterscreen confirmation (AID 2795); further: nearly all actives have a fitted effect of over 55% in size; further: potency means the concentration at half of the fitted maximal effect
# Procedure, shortened: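 Coupling enzymes were first exposed to test compounds (final up to 57.5 uM) for 10 min at room temperature. A substrate plus coupling-system plus AmpLite Red mixture was then added, and after 20 more minutes fluorescence was measured at 525/598 nm.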
# [8] = target: Fructose-bisphosphate aldolase A (Oryctolagus cuniculus) (UniProt P00883); assay: qHTS Assay for Inhibitors of Fructose-1,6-bisphosphate Aldolase from Giardia Lamblia: Rabbit FBPA Selectivity (AID 2794); further: nearly all actives have a fitted effect of over 60% in size; further: potency means the concentration at half of the fitted maximal effect
# Sequence of UniProt P00883 (P00883 whole entry, looked up): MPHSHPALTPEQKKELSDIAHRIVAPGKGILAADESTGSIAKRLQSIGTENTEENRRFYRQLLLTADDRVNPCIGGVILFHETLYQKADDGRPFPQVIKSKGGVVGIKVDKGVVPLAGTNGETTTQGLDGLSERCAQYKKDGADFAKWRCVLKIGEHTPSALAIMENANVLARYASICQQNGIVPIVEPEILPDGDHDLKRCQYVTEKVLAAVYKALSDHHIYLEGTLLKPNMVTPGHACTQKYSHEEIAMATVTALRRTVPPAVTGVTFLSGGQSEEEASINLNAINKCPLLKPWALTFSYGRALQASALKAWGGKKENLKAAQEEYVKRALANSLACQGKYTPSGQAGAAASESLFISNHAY
# Procedure, shortened: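 Selectivity counter-screen using rabbit Class I FBPA in a coupled enzyme system with fluorescent detection (ex 525 nm/em 598 nm). Compounds at up to 57.5 uM final were preincubated 10 min at RT with coupling enzymes, then substrate/detection reagent added for 20 min at RT.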
# [9] = qHTS for Inhibitors of WRN Helicase: Thiazole Orange DNA Binding Counterscreen (AID 720499)
# Procedure, shortened: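 Fluorescent ThO–DNA complex (100 nM dye, 50 nM unlabeled DNA) exposed to test compounds for 15 min at room temperature; emission at 530 nm after 480 nm excitation reports dye displacement.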
# [10] = qHTS for Inhibitors of the vitamin D receptor (VDR): Hit Validation using a Texas Red Assay (AID 602201); further: potency means the concentration at half of the fitted maximal effect
# Procedure, shortened: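 Fluorescence polarization (Ex 595/Em 615 nm) of Texas Red (7 nM) with 1.5 uM VDR-LBD and LG19078 (final concentrations). Compounds were incubated for 2 hours at room temperature.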
# [11] = target: Vitamin D3 receptor (Homo sapiens) (UniProt P11473); assay: qHTS for Inhibitors of the vitamin D receptor (VDR): Hit Validation using a Beta-Lactamase Assay (AID 602202); further: potency means the concentration at half of the fitted maximal effect
# Sequence of UniProt P11473 (P11473 whole entry, looked up, the tested form may be a part): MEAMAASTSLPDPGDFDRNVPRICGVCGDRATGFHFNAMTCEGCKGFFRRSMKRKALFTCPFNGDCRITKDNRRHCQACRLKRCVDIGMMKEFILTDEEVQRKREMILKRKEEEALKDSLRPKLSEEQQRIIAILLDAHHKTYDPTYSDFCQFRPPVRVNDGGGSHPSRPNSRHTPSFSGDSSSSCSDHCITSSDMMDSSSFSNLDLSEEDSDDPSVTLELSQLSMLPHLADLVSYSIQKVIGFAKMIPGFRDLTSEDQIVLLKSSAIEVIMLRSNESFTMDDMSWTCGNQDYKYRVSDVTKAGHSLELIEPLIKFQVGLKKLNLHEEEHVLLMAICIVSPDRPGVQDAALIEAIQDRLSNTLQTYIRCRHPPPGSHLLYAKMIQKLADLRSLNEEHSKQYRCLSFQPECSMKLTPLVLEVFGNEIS
# Procedure, shortened: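 Stably transfected HEK293 cells express a VDR–GAL4 DNA-binding-domain fusion driving a UAS beta-lactamase reporter, stimulated by agonist LG190178. Compounds were added 4 h after plating and incubated 18 h. A FRET beta-lactam substrate was then added for 2 h and cleaved substrate emission read at 447 nm.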
# [12] = qHTS for Inhibitors of the vitamin D receptor (VDR): Hit Validation using a Cytotoxicity Assay (AID 602204);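 further: cells co-treated with VDR agonist LG190178 at 300 nM; potency means the concentration at half of the fitted maximal effect; nearly all actives have a fitted effect of over 75% in size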
# Procedure, shortened: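 Cytotoxicity counterscreen measuring cellular ATP by CellTiter-Glo luminescence. Cells (20,000/well) plated 4 hours before compound addition, then exposed for 18 hours. Cycloheximide at high concentration as positive control, DMSO as negative.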
# [13] = target: Tumor susceptibility gene 101 protein (Homo sapiens) (UniProt Q99816); assay: qHTS Assay for Iinhibitors of HIV-1 Budding by Blocking the Interaction of PTAP/TSG101: Hit Validation (AID 651600); further: potency means the concentration at half of the fitted maximal effect; nearly all actives have a fitted effect of over 70% in size
# Sequence of UniProt Q99816 (Q99816 whole entry, looked up, the tested form may be a part): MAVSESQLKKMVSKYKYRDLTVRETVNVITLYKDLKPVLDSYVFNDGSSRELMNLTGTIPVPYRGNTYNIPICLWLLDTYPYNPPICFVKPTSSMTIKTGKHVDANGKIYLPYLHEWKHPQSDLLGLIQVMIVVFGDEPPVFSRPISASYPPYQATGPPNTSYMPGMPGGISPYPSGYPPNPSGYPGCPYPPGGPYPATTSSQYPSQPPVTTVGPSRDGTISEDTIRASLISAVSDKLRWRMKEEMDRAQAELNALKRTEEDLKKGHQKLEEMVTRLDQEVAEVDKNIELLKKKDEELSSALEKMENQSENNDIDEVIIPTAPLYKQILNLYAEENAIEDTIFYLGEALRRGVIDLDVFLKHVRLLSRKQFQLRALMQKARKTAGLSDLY
# Procedure, shortened: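 Compounds are added to the Tsg101 binding domain (10 uM final) in pH 7.5 HEPES buffer. FITC-PTAP peptide follows at 50 nM final. After 20 min at r.t., polarized FITC emission is measured.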
# Tags describe the fitted curve by direction and shape.
structure (smiles),measurement,setting,value
Cn1cnc(Sc2ncnc3nc[nH]c23)c1[N+](=O)[O-],Potency,[1],"inconclusive [inhibitor, full curve]"
same,Potency,[2],"inconclusive [inhibitor, partial curve]"
same,Potency,[3],inactive
O=C1/C(=C/c2ccco2)SC(=S)N1c1cccnc1,Potency,[4],active: 21.5 µM
CCc1nnc(N/N=C/c2ccccc2F)n1N,Potency,[5],"inconclusive [inhibitor, partial curve]"
CN1CCc2c(sc(/N=C/c3c[nH]c4ccccc34)c2C#N)C1,Potency,[6],inactive
same,Potency,[7],"inconclusive [inhibitor, partial curve]"
CCCCc1nnc(NC(=O)CSCc2cc(=O)n3cc(C)sc3n2)s1,Potency,[6],"inconclusive [inhibitor, single point]"
same,Potency,[5],"inconclusive [inhibitor, single point]"
Cc1ccc(OCCCCc2c(C)n[nH]c2C)cc1,Potency,[6],inactive
COc1cc(Cl)ccc1NC(=S)N(CCN1CCOCC1)C1CCN(C(C)=O)CC1,Potency,[6],inactive
same,Potency,[7],inactive
CCc1c(O)nc(SC2CC(=O)N(c3ccc(F)c(Cl)c3)C2=O)[nH]c1=O (stereo not given),Potency,[5],"inconclusive [inhibitor, single point]"
O=[N+]([O-])c1ccc(O)c(/C=N/NC2=NS(=O)(=O)c3ccccc32)c1,Potency,[5],"inconclusive [activator, partial curve]"
CCN(CC)S(=O)(=O)c1cc(OC)ccc1N=Nc1ccc(O)c2ncccc12,Potency,[6],active: 29.1 µM
same,Potency,[5],"inconclusive [inhibitor, partial curve]"
same,Potency,[7],"inconclusive [inhibitor, full curve, poor fit]"
O=C(CNCc1ccco1)Nc1cccc(S(=O)(=O)N2CCCCC2)c1,Potency,[6],inactive
same,Potency,[8],inactive
CC(=O)N1CCN(C(=S)NC(=O)c2ccc(S(=O)(=O)N3CCOCC3)cc2)CC1,Potency,[6],inactive
same,Potency,[5],inactive
Nn1cnnc1N/N=C/c1ccc(Cl)cc1Cl,Potency,[6],"inconclusive [inhibitor, single point]"
same,Potency,[5],active: 5.8 µM
COc1cc(C(=O)O/N=C2\C=CC(=O)C=C2C)cc(OC)c1OC,Potency,[6],"inconclusive [inhibitor, partial curve]"
same,Potency,[5],active: 28.2 µM
same,Potency,[8],active: 31.6 µM
same,Potency,[7],active: 31.6 µM
S=c1nc[nH]c2c1ncn2C1CCCO1 (stereo not given),Potency,[5],inactive
O=C(O)CC(Sc1n[nH]c(=S)s1)C(=O)O (stereo not given),Potency,[6],"inconclusive [inhibitor, partial curve]"
same,Potency,[5],"inconclusive [inhibitor, single point]"
same,Potency,[8],"inconclusive [inhibitor, single point]"
same,Potency,[7],"inconclusive [inhibitor, partial curve, poor fit]"
CCN1CCc2c(sc(NC(=O)C3CCCCC3)c2C(=O)OC)C1,Potency,[5],inactive
Cc1ccc(C2=NC(=O)/C(=C/c3cc(O)c(O)c(Br)c3)S2)cc1,Potency,[6],inactive
same,Potency,[9],active: 6.81 µM
[N-]=C=C1C(=O)NC(=O)C([n+]2ccc(-c3ccncc3)cc2)C1c1ccccc1C(F)(F)F (stereo not given),Potency,[6],"inconclusive [inhibitor, single point]"
same,Potency,[5],"inconclusive [inhibitor, full curve]"
same,Potency,[8],"inconclusive [inhibitor, partial curve]"
CCn1c(=O)c(C(=O)CN(C)Cc2cccc(OC)c2OC)c(N)n(Cc2ccccc2)c1=O,Potency,[5],inactive
Cc1cc(O)c(C(C)C)cc1N=Cc1cc([N+](=O)[O-])ccc1O,Potency,[6],"inconclusive [inhibitor, single point]"
same,Potency,[5],active: 9.19 µM
same,Potency,[8],active: 13 µM
same,Potency,[7],active: 16.3 µM
O=C(O)/C=C/C(=O)Nc1ccc(O)cc1,Potency,[6],"inconclusive [inhibitor, single point]"
same,Potency,[8],"inconclusive [inhibitor, partial curve]"
CCC(=O)NC1=C(Cl)C(=O)C(NC(=O)CC)=C(Cl)C1=O,Potency,[6],"inconclusive [inhibitor, single point]"
same,Potency,[8],active: 5.17 µM
same,Potency,[7],active: 3.66 µM
same,Potency,[10],"inconclusive [inhibitor, full curve]"
same,Potency,[11],active: 14.6 µM
same,Potency,[12],active: 13 µM
CCOC(=O)C(C(=O)OCC)c1cc(Br)c2noc3c2c1C(=O)c1ccccc1-3,Potency,[6],"inconclusive [inhibitor, single point]"
same,Potency,[5],"inconclusive [inhibitor, partial curve]"
same,Potency,[7],"inconclusive [inhibitor, partial curve]"
same,Potency,[13],"inconclusive [inhibitor, full curve]"
